Molecules are shown by their SMILES. The full ranking holds about 13,000 compounds; the median of “IFI” is about 4, and the highest 2% start at about 17. The list shows a part of the results.

This experiment in a line: GSK_TCMDC: Inhibition Frequency Index (IFI). The number of non-kinase HTS assays where a compound showed > 50 % inhibition, expressed as a percentage of the number of such assays in which the compound was tested (-0 is zero). Format: functional.
As for `COc1cccc2c(O)c(CNC3CCCCC3)ccc12`, the IFI came out at 7.52%.

`Cc1cc(Nc2ccncc2)n2nc(C)c(-c3ccccc3Cl)c2n1` registered an IFI of 2.04%. As for `COc1ccc(CN(C)CCCSc2ccc(NC(=O)c3cccc4c(=O)cc(-c5ccccc5)[nH]c34)cc2)cc1OC`, the IFI worked out at 4.41%.

The compound `COc1ccc(/C=C/C(=O)NCCCCCN2CCC(c3c[nH]c4ccccc34)CC2)cc1O` yielded an IFI of 3.57%. Compound `Cc1ccc(CNC(=O)[C@H](CCCN)Nc2cc(C)nc(Nc3ccccc3)n2)cc1` gave an IFI of 7.5%. For the compound `O=C(Nc1ccc(Cl)c(Cl)c1)N[C@H]1CCN(CCCCCNC(=O)C2CC2c2ccc(Cl)c(Cl)c2)C1` (some centres not stated), the IFI was 16.2%.

In the case of `COc1ccc(CCn2c(=N)c(C(=O)NC3CCCC3)cc3c(=O)n4ccccc4nc32)cc1`, the IFI was 2.56%.

`COc1ccc2ncc(F)c([C@H](O)CN3CCC(NCc4ccc5c(c4)NC(=O)CO5)CC3)c2c1` yielded an IFI of 2.24%. With `COc1cc(C(=O)N2CCN(C(C)C)CC2)ccc1CN(C)CCCN1CCN(c2cccc(Cl)c2Cl)CC1`, the IFI was determined as 12.1%. `O=C(NCC(c1ccc(C(F)(F)F)cc1)N1CCCC1)c1cc(-c2ccncc2)c(-c2cccc(O)c2)o1` (configuration not stated) returned an IFI of 3.03%. With `N#Cc1ccc(C(=O)Nc2ccc(Cl)c(N3CCN(CCc4ccccc4)CC3)c2)cc1`, the IFI stood at 1.28%. The compound `CCCCNc1nc(NCCCC)c2c(C)c(Cc3ccccc3)c(NCCCC)nc2n1` yielded an IFI of 16.1%.

In the case of `N=C(N)NCCCN(Cc1ccccc1)c1ccc(Cl)cc1`, the IFI worked out at 1.48%. Then `COc1ccc2nc(-c3ccc(C(=O)NCCCN4CCN(c5cc(Cl)ccc5OC)CC4)cc3)[nH]c2c1`, with 3.73%; and `CCCN(CC1CC1)c1nc(C)nc2c(-c3ccccc3)cc(C)cc12`, with 14.3%.

Compound `CCOc1ccc(-c2nonc2NC(=O)c2ccco2)cc1OCC` showed an IFI of -0%. `C=CCn1ccc2c3c(N)nc(N)nc3ccc21`: the IFI stood at 6.4%. Then `O=C(COc1ccc(F)cc1)NC1CCN(c2ccnc3cc(Cl)ccc23)C1` (configuration not stated), with 3.13%; and `Cc1cccc2nc(-c3ccc(-c4cccc(CN5CCN(c6ccncc6)CC5)c4)cc3)[nH]c12`, with 10.7%. Compound `CCc1nc2nc(C)cc(Nc3cc(C)cc(C)c3)n2n1` came in with an IFI of 1.02%. The same measure for `CCOc1cc(C=NNc2nc(C)cc(-n3nc(C)cc3C)n2)ccc1O`: 5.67%; for `O=C(NC(=O)c1ccccc1)NC1CCN(c2ccnc3cc(Cl)ccc23)C1` (configuration not stated): 6.15%.

Turning to `COc1cc(SC)ccc1C(=O)N1CC(C)CC(C)C1` (configuration not stated), the IFI was 0.71%. `Cc1[nH]c(C)c(-c2ccc(Oc3ccc(F)cc3)cc2)c(=O)c1Cl`: the IFI came out at 6.25%. Then `O=C(Cc1ccc(NC(=O)c2ccc(O)c(-c3cccc([N+](=O)[O-])c3)c2)cc1)NCCN1CCCCC1`, with 1.4%. Compound `COc1cc(OC)cc(-c2nn(-c3ccc([N+](=O)[O-])cc3C#N)c(=S)n2CC2CCCO2)c1` (configuration not stated) yielded an IFI of 2.08%.

In turn, `COc1ccc2nccc([C@@H](O)CN3CCC(NC(=O)Cc4ccc(Br)c5ccccc45)CC3)c2c1` registered an IFI of -0%. In turn, `COCCNC(=O)c1ccc(OC2CCN(Cc3ccc(F)c(F)c3)CC2)c(Cl)c1` gave an IFI of -0%. The same measure for `CCCCc1cc(NCc2ccncc2)nc(Nc2ccccc2)n1`: 1.45%; for `CCCCc1cc(NCc2ccncc2)nc(Nc2ccc(C)cc2)n1`: 5.8%. On to `CCN(CC)CCN(Cc1ccc(-c2ccc(C(F)(F)F)cc2)cc1)C(=O)Cn1c(CCc2ccc(F)cc2)nc(=O)c2sccc21`, for which the IFI was determined as 10.6%. In turn, `CCOC(=O)c1ccc(NC(=O)Nc2cccc(-c3ccc(-c4nc5cc(F)ccc5[nH]4)cc3)c2)cc1` came in with an IFI of -0%. The same measure for `COc1ccc2nccc(N/N=C/c3ccccc3[N+](=O)[O-])c2c1`: 5.71%; for `CCCC/C=C(\Cl)c1ccc(O)c2c1C[C@H]1C[C@H]3[C@H](N(C)C)C(O)=C(C(N)=O)C(=O)[C@@]3(O)C(O)=C1C2=O`: 6.82%. Turning to `Cc1cccc2nc(-c3cccc(-c4ccc(CNCc5cccc(N)c5)cc4)c3)[nH]c12`, the IFI amounted to 7.62%. With `CCN(CC)CCN(Cc1ccc(-c2ccc(C(F)(F)F)cc2)cc1)C(=O)Cn1c(/C=C/c2ccco2)nc(=O)c2ccccc21`, the IFI came to 5.52%. Compound `COc1cc(F)c2ncc(F)c(CCN3C[C@H](CNCc4ccc5c(n4)NC(=O)CS5)[C@H](O)C3)c2c1` gave an IFI of 0.97%. Compound `CN1CCC(NCc2ccc(-c3ccc(Cl)cc3)cc2)CC1` showed an IFI of 7.8%. Compound `CCc1ccc2nc(-c3ccc(F)cc3)nc(SCC(=O)Nc3sc(C)c(C)c3C#N)c2c1` yielded an IFI of -0%. In turn, `N#Cc1c(N2CCCCCC2)nc(N)c2c(N)nc3c(c12)CC(=O)N3c1ccc(F)cc1` had an IFI of 2.86%.

For `c1ccc2c(NCCCCCCNc3ccnc4ccccc34)ccnc2c1`, the IFI amounted to 4.55%.

For the compound `CN1CCCC(CN2CCN(Cc3ccc(-c4ccc(-c5nc6ccccc6[nH]5)cc4)cc3)CC2)C1` (configuration not stated), the IFI stood at 7.04%. `COc1ccc(C(=O)Nc2ccc(Cl)cc2C(=O)Nc2ccncc2)cc1` returned an IFI of 1.35%. The same measure for `O=C(Nc1ccc(-c2cccc(-c3nc4cc(C(F)(F)F)ccc4[nH]3)c2)cc1)Nc1ccc(Cl)c(Cl)c1`: 7%; for `Nc1nc(N)c2c(ccc3c2ccn3Cc2ccccc2)n1`: 6.29%; for `CC1(C)NC(N)=NC(=N)N1OCCCCOc1ccccc1`: 2.17%. As for `Nc1nc(N)c2c(ccc3c2ccn3Cc2ccc3c(c2)OCO3)n1`, the IFI was 6.67%.

Compound `CN1CCN(CCCN(Cc2cccc(-c3ccc(CNC4CCCC4)cc3)c2)C(=O)CCC2CCCC2)CC1` returned an IFI of 7.91%.

Compound `Cc1nc2nc(N)nc(N)c2c(C)c1Cc1ccc(N)cc1` gave an IFI of 8.59%.

`CC[C@H](C)CNCc1ccc(OCc2cccc(COc3ccc(CNC[C@@H](C)CC)cc3I)c2)c(I)c1` registered an IFI of 15.3%. Consider `O=C(/C=C/c1ccc(Cl)c(Cl)c1)NCCCCCN1CCC(NC(=O)Nc2cccc(F)c2)CC1`, for which the IFI was 4.7%.

Compound `Cc1ccc(Oc2ncccc2C(=O)Nc2cccc3cccnc23)c(C)c1` showed an IFI of 2.88%.

With `Cc1ccc(CNC(=O)[C@H](Cc2ccccc2)Nc2cc(C)nc(NCc3ccccc3C)n2)cc1`, the IFI was found to be 4.88%. Turning to `COc1ccc(C(=O)O)cc1OCc1ccccc1`, the IFI worked out at 0%. `CC(C)CNCc1ccc(-c2ccc(CN(CCCN3CCN(C)CC3)C(=O)/C=C/c3ccccc3)cc2)cc1` had an IFI of 6.67%. `CC(C)N1CCN(C(=O)c2ccc(CNCCCN3CCN(c4ccccc4C(F)(F)F)CC3)s2)CC1` had an IFI of 8.54%. Compound `O=C(NC1CC1)c1ccc(Cn2c(SCc3cccc([N+](=O)[O-])c3)nc3ccccc3c2=O)cc1` registered an IFI of 0.71%. The same measure for `c1ccc(CCNCc2cccc(-c3ccccc3CNCc3ccc4c(c3)OCO4)c2)nc1`: 5.44%; for `Oc1ccc(-c2nc3c4cc(I)ccc4c4ccc(I)cc4c3[nH]2)cc1`: 1.44%; for `CC(C)c1ccc(CN2CCCCC(NC(=O)c3cc(-c4cccc(F)c4)cs3)C2)cc1` (configuration not stated): 1.82%. `COc1c(Br)cc(Br)cc1C(C)=O` returned an IFI of -0%.

For the compound `CC(C)c1ccc(NC(=O)NC2CCN(CCCCCNC(=O)/C=C/c3ccc(Cl)c(Cl)c3)CC2)cc1`, the IFI stood at 5.67%. With `N=C(N)Nc1ccc(OCCCCCOc2ccc(NC(=N)N)cc2Br)c(Br)c1`, the IFI was found to be 5.88%. `CC(C)c1ccc(CN2CCC(NC(=O)c3ccc(-c4cccc(Cl)c4)s3)CC2)cc1`: the IFI turned out to be 12.1%. `CCCCCC(C)C(C)c1cc(O)c2c(c1)OC(C)(C)CC2(O)c1ccnn1C` (configuration not stated) returned an IFI of 0.72%.

`CN1CCN(c2cc(NC(=O)c3ccc(-c4ccc(Cl)cc4)cc3)ccc2Cl)CC1` gave an IFI of 5.66%. `CCCCc1cc(NCc2ccncc2)nc(Nc2cccc(OC)c2)n1` displayed an IFI of 5.8%. Regarding `CNC(=O)c1ccccc1Nc1cc(Nc2cc(OC)ccn2)ncc1Cl`, the IFI was -0%. As to `O=C1COc2ccccc2N1C/C=C(\CN1CCC(c2ccccc2)CC1)c1cc(Cl)cc(Cl)c1`, the IFI was found to be 1.57%. The compound `Cc1cnc(C(=O)Nc2cccc(-c3cccc(-c4nc5cc(F)ccc5[nH]4)c3)c2)cn1` came in with an IFI of 0.91%. As to `O=C(NCC1CCC(CNCCc2ccccc2)CC1)Nc1ccc(Cl)c(Cl)c1` (configuration not stated), the IFI was 0.72%. `CN1CCN(Cc2nc(-c3ccc4c(Nc5ccc(F)c(O)c5)ccnc4c3)cs2)CC1` displayed an IFI of 4.38%. The compound `CCc1c(CCNCCCCCNCCc2ccc(OC)c(OC)c2CC)ccc(OC)c1OC` displayed an IFI of 6.38%. The same measure for `COc1ccc(CC(=O)NC(CCCN2CCC(c3ccccc3)CC2)c2ccc(Cl)c(Cl)c2)cc1OC` (configuration not stated): 9.4%; for `Nc1nc(N)c2c(ccc3nn(S(=O)(=O)N4CCCC4)cc32)n1`: 1.47%; for `CCOc1cc(C)ccc1N1CCN(CCCCNC(=O)c2ccc(NC(=O)c3ccc(Cl)cc3)cc2)CC1`: 7.02%. The compound `Cc1c(-c2cccc(NC(=O)C(C)(C)Oc3ccc(Cl)cc3)c2)nc2ncccn12` displayed an IFI of 0.85%.

Regarding `CCN(CCCN1CCCCC1)c1cc(C)nc(Nc2ccc(Oc3ccccc3)cc2)n1`, the IFI worked out at 16.2%. Consider `CCOC(=O)c1c(C)n(-c2ccccc2)c2ccc(OC(=O)COc3ccc(Cl)cc3Cl)cc12`, for which the IFI was 1.69%. Then `CC(C)Cn1c(Sc2ccc(C#N)c([N+](=O)[O-])c2)nnc1-c1ccccc1Cl`, with 6.43%; and `CC(C)C(=O)NC(Nc1ccc([N+](=O)[O-])cc1)C(Cl)(Cl)Cl` (configuration not stated), with 0.72%. `COc1ccccc1N1CCN(CCCCNC(=O)c2ccc(NC(=O)c3ccc(OC(F)(F)F)cc3)cc2)CC1` showed an IFI of 4.2%. Then `CN1CCN(CCc2ccc3nc(-c4csc(Cc5cc(Cl)ccc5OCc5ccccc5)n4)[nH]c3c2)CC1`, with 10.2%; and `CC1CN(c2ccc(NC(=O)c3ccc(F)cc3)cc2)CCN1Cc1cccc(F)c1` (configuration not stated), with 2.86%. The compound `N#Cc1cnc2cc(-c3cnc(CNCCN4CCOCC4)s3)ccc2c1Nc1ccc(Oc2ccccc2)cc1` had an IFI of 1.45%. For the compound `O=C(Nc1ccc(C(=O)N2CCN(CCN3CCN(c4cccc(C(F)(F)F)c4)CC3)CC2)cc1)c1ccc(C(F)(F)F)cc1`, the IFI turned out to be 9.4%. In the case of `CCOC(=O)c1nc(-c2ccc(-c3ccccc3)cc2)[nH]c1N`, the IFI was found to be 2.84%. Then `Cc1nc(N/C(N)=N/C(=O)NC2CCCCC2)nc2ccccc12`, with 8.28%; and `Cc1c(CNCCCNc2nc3cscc3[nH]2)sc(C(F)F)c1Br`, with 3.62%. The same measure for `CC1(C)N=C(NC(=O)c2cc([N+](=O)[O-])cc([N+](=O)[O-])c2)N=C(N)N1OCc1cccc2ccccc12`: 1.46%; for `Cc1ccc(N2C(N)=NC(N)=NC2(C)C)cc1`: 2.19%; for `Nc1ccc(-c2ccc3ccnc(N)c3c2)cc1`: 9.09%.
